In the antibiotic and cytotoxicity screens of Wong et al. (2023):
The other results are listed elsewhere or left out.

test system: HepG2; test: cytotoxicity call (relative viability < 0.9); details: 10 µM

Structure (SMILES) | cytotoxicity call
C[C@H]1CN([C@@H](C)CO)C(=O)c2cccc(NS(=O)(=O)c3ccc(F)cc3)c2O[C@@H]1CN(C)S(=O)(=O)c1ccc(F)cc1 | inactive
CC[C@@H](C)c1ccc(NC(=O)c2ccc(N(CC)CC)cc2)cc1 | inactive
C[C@@H]1CN([C@H](C)CO)C(=O)CCCn2nncc2CO[C@@H]1CN(C)Cc1ccc2c(c1)OCCN2C | inactive
C[C@@H]1CN([C@H](C)CO)C(=O)c2cc(NC(=O)Nc3ccc4c(c3)OCO4)ccc2O[C@@H]1CN(C)Cc1ccc(-c2ccccc2)cc1 | active
C[C@@H]1CN([C@@H](C)CO)C(=O)c2cc(NC(=O)NC3CCCCC3)ccc2O[C@@H](C)CCCCO[C@H]1CN(C)S(=O)(=O)c1ccccc1 | inactive
O=C1c2c(O)cccc2Cc2cccc(O)c21 | inactive
Cc1noc(C)c1NC(=O)Nc1ccc2c(c1)C(=O)N([C@H](C)CO)C[C@@H](C)[C@H](CN(C)C(=O)Nc1ccc3c(c1)OCO3)OCCCC[C@@H](C)O2 | inactive
C[C@@H]1CN([C@H](C)CO)C(=O)c2cc(NS(=O)(=O)c3ccccc3)ccc2O[C@@H](C)CCCCO[C@@H]1CN(C)CC1CCCCC1 | inactive
Nc1cc[nH]c(=O)n1 | inactive
CO[C@H]1O[C@H](CO)[C@@H](OC(=O)Nc2ccccc2-c2ccccc2)[C@H](OC(=O)Nc2ccc3c(c2)OCO3)[C@@H]1OC(=O)Nc1ccc2c(c1)OCO2 | inactive

test system: S. aureus RN4220; test: growth inhibition call (relative growth <= 0.2); details: 50 µM

Structure (SMILES) | growth inhibition call
C[C@@H]1CN([C@H](C)CO)C(=O)c2cc(NC(=O)CCCN(C)C)ccc2O[C@H]1CN(C)Cc1ccc(Oc2ccccc2)cc1 | inactive
CCCN(C)C[C@@H]1OCCCC[C@H](C)Oc2ccc(NC(=O)Cc3ccccc3)cc2C(=O)N([C@H](C)CO)C[C@@H]1C | inactive
C[C@@H]1CCCCO[C@H](CN(C)Cc2ccccc2)[C@@H](C)CN([C@@H](C)CO)C(=O)c2cc(NS(=O)(=O)c3ccccc3)ccc2O1 | inactive
CO[C@@H](C(=O)N(C)C[C@@H]1OCc2ccccc2-c2c(n(C)c3ccccc23)C(=O)N([C@@H](C)CO)C[C@@H]1C)c1ccccc1 | inactive
Cc1cc2nc3c(=O)[nH]c(=O)nc-3n(C[C@H](O)[C@H](O)[C@H](O)CO)c2cc1C | inactive
Cc1o[nH]c(=O)c1CC[C@@H](N)C(=O)O | inactive
Cc1n[nH]c(=O)nc1NC1CC1 | inactive
C[C@@H]1CN([C@H](C)CO)C(=O)c2cc(NC(=O)CCN3CCOCC3)ccc2O[C@@H]1CN(C)C(=O)Nc1ccc(F)cc1 | inactive
Cc1ccc(S(=O)(=O)Nc2cccc3c2O[C@@H](CN(C)S(C)(=O)=O)[C@@H](C)CN([C@H](C)CO)C3=O)cc1 | inactive
C[C@@H]1CN([C@H](C)CO)C(=O)c2cccc(NC(=O)C3CCOCC3)c2O[C@H]1CN(C)C(=O)Nc1ccc2c(c1)OCO2 | inactive
Cc1cc(Cl)cc2sc(N(Cc3ccccn3)C(=O)c3ccc(S(=O)(=O)N4CCCC4)cc3)nc12 | inactive
Cc1ccccc1S(=O)(=O)N1C[C@H](O)COC[C@H]2O[C@@H](CC(=O)NCc3ccccc3Cl)CC[C@@H]21 | inactive
C[C@@H]1CN([C@@H](C)CO)C(=O)c2cc(NC(=O)Cc3ccccc3)ccc2O[C@@H](C)CCCCO[C@H]1CN(C)CC1CCCCC1 | inactive
Cc1ccc(S(=O)(=O)N(C)C[C@@H]2Oc3ncc(Br)cc3C(=O)N([C@@H](C)CO)C[C@@H]2C)cc1 | inactive
COc1ccc(S(=O)(=O)N(C)C[C@@H]2Oc3ccc(NS(C)(=O)=O)cc3C(=O)N([C@@H](C)CO)C[C@@H]2C)cc1 | inactive
CCCN(C)C[C@@H]1OCCCC[C@@H](C)Oc2ccc(NC(=O)Nc3cccc4ccccc34)cc2C(=O)N([C@H](C)CO)C[C@@H]1C | inactive
C[C@@H]1CCCCO[C@@H](CN(C)S(=O)(=O)c2cn(C)cn2)[C@@H](C)CN([C@@H](C)CO)C(=O)c2cc(NS(=O)(=O)c3cn(C)cn3)ccc2O1 | inactive
C[C@H]1CN([C@@H](C)CO)C(=O)c2cc(C#Cc3ccccn3)cnc2O[C@H]1CN(C)C(=O)CCN1CCCCC1 | inactive
O=C(CN1CCOCC1)N[C@@H]1CC[C@H](CCNC(=O)C2CCC2)O[C@@H]1CO | inactive
C[C@H](CO)N1C[C@H](C)[C@@H](CN(C)C(=O)C2CCCCC2)OCCCC[C@H](C)Oc2ccc(NC(=O)Nc3ccc(F)cc3)cc2C1=O | inactive

Structure (SMILES) | growth inhibition call
C[C@@H]1CCCCO[C@@H](CN(C)C(=O)Nc2ccccc2)[C@@H](C)CN([C@@H](C)CO)C(=O)c2cc(NC(=O)Nc3ccc4c(c3)OCO4)ccc2O1 | inactive
Cc1noc(C)c1S(=O)(=O)Nc1ccc2c(c1)C(=O)N([C@H](C)CO)C[C@H](C)[C@H](CN(C)Cc1ccc(Oc3ccccc3)cc1)O2 | inactive
C[C@H]1CN([C@@H](C)CO)C(=O)c2cc(NC(=O)CCCN(C)C)ccc2O[C@@H]1CN(C)S(=O)(=O)c1ccc(F)cc1 | inactive
Cn1c(=O)c2c(nc(N3CCOCC3)n2CCCN)n(C)c1=O | inactive
C[C@H](CO)N1C[C@H](C)[C@@H](CN(C)C(=O)Nc2ccc3c(c2)OCO3)Oc2ccc(NC(=O)c3ccncc3)cc2C1=O | inactive
COc1cccc(OC)c1NC(=O)N1[C@@H]2CC[C@@H](C2)[C@H]1c1nc2cccc(OCc3ccc(F)cc3)c2[nH]1 | inactive
C[C@@H]1CN([C@@H](C)CO)C(=O)c2cc(NC(=O)Nc3ccc(F)cc3)ccc2O[C@H]1CN(C)S(=O)(=O)c1cn(C)cn1 | inactive
C[C@@H]1CN([C@H](C)CO)C(=O)c2cc(NC(=O)NC3CCCCC3)ccc2O[C@H]1CN(C)S(C)(=O)=O | inactive
c1cc(CN2CCCNCCNCCCNCC2)ccc1CN1CCCNCCNCCCNCC1 | inactive
Cc1ccc(S(=O)(=O)N(C)C[C@@H]2Oc3ccc(NC(=O)c4ccncc4)cc3C(=O)N([C@@H](C)CO)C[C@H]2C)cc1 | inactive
C[C@H]1CN([C@@H](C)CO)C(=O)c2cccc(NS(=O)(=O)c3ccc(F)cc3)c2O[C@@H]1CN(C)S(=O)(=O)c1ccc(F)cc1 | inactive
CC[C@@H](C)c1ccc(NC(=O)c2ccc(N(CC)CC)cc2)cc1 | inactive
C[C@@H]1CN([C@H](C)CO)C(=O)CCCn2nncc2CO[C@@H]1CN(C)Cc1ccc2c(c1)OCCN2C | inactive
C[C@@H]1CN([C@H](C)CO)C(=O)c2cc(NC(=O)Nc3ccc4c(c3)OCO4)ccc2O[C@@H]1CN(C)Cc1ccc(-c2ccccc2)cc1 | inactive
C[C@@H]1CN([C@@H](C)CO)C(=O)c2cc(NC(=O)NC3CCCCC3)ccc2O[C@@H](C)CCCCO[C@H]1CN(C)S(=O)(=O)c1ccccc1 | inactive
O=C1c2c(O)cccc2Cc2cccc(O)c21 | inactive
Cc1noc(C)c1NC(=O)Nc1ccc2c(c1)C(=O)N([C@H](C)CO)C[C@@H](C)[C@H](CN(C)C(=O)Nc1ccc3c(c1)OCO3)OCCCC[C@@H](C)O2 | inactive
C[C@@H]1CN([C@H](C)CO)C(=O)c2cc(NS(=O)(=O)c3ccccc3)ccc2O[C@@H](C)CCCCO[C@@H]1CN(C)CC1CCCCC1 | inactive
Nc1cc[nH]c(=O)n1 | inactive
CO[C@H]1O[C@H](CO)[C@@H](OC(=O)Nc2ccccc2-c2ccccc2)[C@H](OC(=O)Nc2ccc3c(c2)OCO3)[C@@H]1OC(=O)Nc1ccc2c(c1)OCO2 | inactive
